{"source": "PubChem BioAssay (Tox21)", "key": {"[1]": {"test": "A CellTox Green Cytotoxicity Assay to monitor cytotoxicity in HepG2 cells - 32 hour (AID 1224883); also: nearly all actives have a fitted effect of over 50% in size", "in_short": "(§1)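 Measurements at 0, 8, 16, 24, 32 and 40 h of treatment captured CellTox Green fluorescence in HepG2 cells that had been co-plated with reagent and preincubated 5 h at 37 C/5% CO2.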"}, "[2]": {"test": "A CellTox Green Cytotoxicity Assay to monitor cytotoxicity in HepG2 cells - 8 hour (AID 1224890)", "in_short": "as §1"}, "[3]": {"test": "qHTS RealTime-Glo MT Cell Viability Assay in HEK293 cells - 8 hour (AID 1224887)", "in_short": "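HEK293 + NanoLuc + prosubstrate, 600 cells/well; 5 h, 37 C/5% CO2; compound 23 nL in DMSO by pintool; 37 C; luminescence read at 0, 8, 16, 24, 32 and 40 h time points.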"}, "[4]": {"test": "A CellTox Green Cytotoxicity Assay to monitor cytotoxicity in HEK293 cells - 8 hour (AID 1224884)", "in_short": "(§2)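 Tox21 screen in HEK293: membrane-impermeant cyanine dye fluoresces on binding dead-cell DNA; compound pinned 5 h post-seeding, plates held at 37 C, signal read repeatedly through 40 h.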"}, "[5]": {"test": "qHTS RealTime-Glo MT Cell Viability Assay in HepG2 cells - 16 hour (AID 1224885)", "in_short": "(§3)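 Compound treatment began 5 h after plating HepG2 cells (600/well) with NanoLuc luciferase and prosubstrate. Plates stayed at 37 C for 40 h; luminescence was captured at six time points, 0 h through 40 h.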"}, "[6]": {"test": "A CellTox Green Cytotoxicity Assay to monitor cytotoxicity in HEK293 cells - 16 hour (AID 1224888)", "in_short": "as §2"}, "[7]": {"test": "qHTS RealTime-Glo MT Cell Viability Assay in HepG2 cells - 0 hour (AID 1224889)", "in_short": "as §3"}, "[8]": {"test": "qHTS assay to identify small molecule antagonists of the estrogen receptor alpha (ER-alpha) signaling pathway using the BG1 cell line in the presence of 0.1 nM 17-beta-estradiol - cell viability counter screen (AID 1259241)", "in_short": "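Cells were plated and left 24 hr, compounds in DMSO were pinned in, 17beta-estradiol was added to 0.1 nM final, and after 22 hr CellTiter-Fluor reagent was added for 30 min before fluorescence was read.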"}, "[9]": {"test": "qHTS RealTime-Glo MT Cell Viability Assay in HEK293 cells - 24 hour (AID 1224886)", "in_short": "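Quantitative high-throughput screen of the Tox21 10K library in HEK293: cells and RealTime-Glo reagents plated together, compound added at 5 h, luminescence monitored through 40 h at 37 C.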"}}, "note": "Values joined by “and” are separate entries in the source; they are usually repeats but may differ in a detail not shown here. Identical values can stand only once. The inconclusive results got no clear call from the source; some entries with a clear call stand among them for comparison. Where the call is inconclusive, the potency comes from a doubtful curve fit. Where a structure was tested more than once in an assay, its records may differ in their call. Active and inactive are the calls of the source. Calls follow the shape of the dose curve; as a rule, active = well fitted curve in the direction sought with a large enough effect in the repeat runs; inconclusive = weak or mixed curves; inactive = no such curve, though single readings can be large; an effect the other way counts as inactive or inconclusive. Potency is read from the fitted curve at half-maximal effect; tags tell the direction and shape of the fitted curve.", "data": [{"smiles": "CCCCCCCCC=O", "values": [{"measurement": "Potency", "setting": "[1]", "value": "inconclusive: 11 µM [activator, full curve, poor fit]"}, {"measurement": "Potency", "setting": "[2]", "value": "inconclusive: 11 µM [activator, partial curve, poor fit]"}]}, {"smiles": "COc1ccc(C(=O)c2ccccc2)c(O)c1", "values": [{"measurement": "Potency", "setting": "[1]", "value": "inconclusive: 48.2 µM [activator, partial curve]"}, {"measurement": "Potency", "setting": "[3]", "value": "inconclusive: 24.5 µM [cytotoxic, partial curve]"}]}, {"smiles": "O=C1CCCCCCCCCCC1", "values": [{"measurement": "Potency", "setting": "[4]", "value": "inconclusive: 49 µM [activator, partial curve, poor fit]"}, {"measurement": "Potency", "setting": "[5]", "value": "inactive"}]}, {"smiles": "NC1[C@H]2CN(c3nc4c(cc3F)c(=O)c(C(=O)O)cn4-c3ccc(F)cc3F)C[C@@H]12", "note": "(some centres undefined)", "values": [{"measurement": "Potency", "setting": "[4]", "value": "inconclusive: 10.7 µM [activator, single point]"}, {"measurement": "Potency", "setting": "[6]", "value": "inconclusive: 10.7 µM [activator, single point]"}]}, {"smiles": "CC(C)c1ccc2c(c1)CC[C@H]1[C@](C)(CN)CCC[C@]21C", "values": [{"measurement": "Potency", "setting": "[4]", "value": "active: 38.9 µM"}, {"measurement": "Potency", "setting": "[5]", "value": "active: 17.4 µM"}, {"measurement": "Potency", "setting": "[6]", "value": "active: 24.5 µM"}, {"measurement": "Potency", "setting": "[7]", "value": "inconclusive: 27.5 µM [rising, partial curve]"}]}, {"smiles": "CC1(C)O[C@@H]2C[C@H]3[C@@H]4CCC5=CC(=O)C=C[C@]5(C)[C@@]4(F)[C@@H](O)C[C@]3(C)[C@]2(C(=O)CO)O1", "values": [{"measurement": "Potency", "setting": "[4]", "value": "active: 9.52 µM"}, {"measurement": "Potency", "setting": "[7]", "value": "active: 22 µM and active: 12.3 µM and inconclusive: 9.52 µM [cytotoxic, partial curve]"}]}, {"smiles": "Clc1cccc(Cl)c1NC1=NCCN1", "values": [{"measurement": "Potency", "setting": "[4]", "value": "inactive"}, {"measurement": "Potency", "setting": "[8]", "value": "inconclusive: 54.5 µM [cytotoxic, partial curve, poor fit]"}]}, {"smiles": "CC(CO)CO", "values": [{"measurement": "Potency", "setting": "[4]", "value": "inactive"}, {"measurement": "Potency", "setting": "[7]", "value": "inactive"}]}, {"smiles": "C1CCC(C(CC2CCCCN2)C2CCCCC2)CC1", "note": "(centres undefined)", "values": [{"measurement": "Potency", "setting": "[4]", "value": "active: 26.8 µM"}, {"measurement": "Potency", "setting": "[7]", "value": "inconclusive: 23.9 µM [rising, partial curve]"}]}, {"smiles": "Nc1ccc(O)c(N)c1", "values": [{"measurement": "Potency", "setting": "[4]", "value": "inactive"}, {"measurement": "Potency", "setting": "[3]", "value": "inconclusive: 54.6 µM [cytotoxic, single point] and inconclusive: 21.9 µM [cytotoxic, partial curve]"}, {"measurement": "Potency", "setting": "[8]", "value": "inconclusive: 60.7 µM [cytotoxic, partial curve] and inconclusive: 34.4 µM [cytotoxic, full curve]"}]}, {"smiles": "CC1COc2ccccc2N1", "note": "(centres undefined)", "values": [{"measurement": "Potency", "setting": "[4]", "value": "inactive"}, {"measurement": "Potency", "setting": "[9]", "value": "inconclusive: 43.6 µM [rising, partial curve, poor fit]"}]}, {"smiles": "Clc1nc2ccccc2nc1Cl", "values": [{"measurement": "Potency", "setting": "[4]", "value": "inactive"}, {"measurement": "Potency", "setting": "[9]", "value": "inconclusive: 15.7 µM [rising, partial curve]"}, {"measurement": "Potency", "setting": "[3]", "value": "inactive"}]}, {"smiles": "CN[C@H]1CC[C@@H](c2ccc(Cl)c(Cl)c2)c2ccccc21", "values": [{"measurement": "Potency", "setting": "[4]", "value": "inconclusive: 26.8 µM [activator, single point]"}, {"measurement": "Potency", "setting": "[5]", "value": "active: 23.9 µM"}, {"measurement": "Potency", "setting": "[3]", "value": "inconclusive: 21.3 µM [cytotoxic, single point]"}, {"measurement": "Potency", "setting": "[6]", "value": "inconclusive: 26.8 µM [activator, single point]"}, {"measurement": "Potency", "setting": "[2]", "value": "inconclusive: 21.3 µM [activator, partial curve, poor fit]"}]}, {"smiles": "CCN(CC)CCNC(=O)c1c(C)[nH]c(/C=C2\\C(=O)Nc3ccc(F)cc32)c1C", "values": [{"measurement": "Potency", "setting": "[4]", "value": "active: 23.9 µM"}, {"measurement": "Potency", "setting": "[3]", "value": "active: 21.3 µM"}, {"measurement": "Potency", "setting": "[6]", "value": "active: 23.9 µM"}, {"measurement": "Potency", "setting": "[2]", "value": "active: 19 µM"}, {"measurement": "Potency", "setting": "[8]", "value": "inconclusive: 2.11 µM [cytotoxic, full curve]"}]}, {"smiles": "C1=CC2C3C=CC(C3)C2C1", "note": "(centres undefined)", "values": [{"measurement": "Potency", "setting": "[4]", "value": "active: 54 µM"}, {"measurement": "Potency", "setting": "[9]", "value": "inactive"}, {"measurement": "Potency", "setting": "[6]", "value": "inconclusive: 48.1 µM [activator, partial curve]"}]}, {"smiles": "CCCCCCCCCc1ccc(OCCOCCO)cc1", "values": [{"measurement": "Potency", "setting": "[4]", "value": "inconclusive: 16.3 µM [activator, partial curve]"}, {"measurement": "Potency", "setting": "[5]", "value": "inconclusive: 18.3 µM [cytotoxic, partial curve]"}, {"measurement": "Potency", "setting": "[6]", "value": "active: 14.5 µM"}, {"measurement": "Potency", "setting": "[2]", "value": "inconclusive: 20.5 µM [activator, single point]"}]}, {"smiles": "O=c1cc(-c2ccccc2)oc2ccc3ccccc3c12", "values": [{"measurement": "Potency", "setting": "[4]", "value": "inconclusive: 30.9 µM [activator, partial curve, poor fit]"}, {"measurement": "Potency", "setting": "[3]", "value": "inactive"}, {"measurement": "Potency", "setting": "[6]", "value": "inconclusive: 30.9 µM [activator, partial curve, poor fit]"}, {"measurement": "Potency", "setting": "[2]", "value": "inconclusive: 34.7 µM [activator, partial curve]"}]}, {"smiles": "Cc1ccccc1Br", "values": [{"measurement": "Potency", "setting": "[4]", "value": "inactive"}]}, {"smiles": "COc1ccc2cc(S(=O)(=O)N[C@H](CC(=O)N[C@H](Cc3ccc(CN4[C@H](C)CCC[C@@H]4C)cc3)C(=O)N(C)C(C)C)c3ccc4c(c3)OCO4)ccc2c1", "values": [{"measurement": "Potency", "setting": "[4]", "value": "inconclusive: 52 µM [activator, single point]"}, {"measurement": "Potency", "setting": "[6]", "value": "inconclusive: 52 µM [activator, single point]"}, {"measurement": "Potency", "setting": "[7]", "value": "inconclusive: 29.2 µM [cytotoxic, partial curve]"}, {"measurement": "Potency", "setting": "[2]", "value": "inconclusive: 52 µM [activator, single point]"}]}]}
